From PubChem BioAssay AID504332 (National Center for Advancing Translational Sciences (NCATS), 2011)
The whole screen tested about 350,000 compounds, of which about 31,000 (8.9%) were called active. Inconclusive results, whose numbers are uncertain, are shown with a selection of clear calls. Calls come from the whole dose curve; as a rule, active = well fitted inhibition curve with a large enough effect; inconclusive = small, poorly fitted or top-dose-only effect; inactive = no such curve, though single readings can be large or run the other way. A potency beside an inconclusive call is a rough fit, not a confirmed value.

Target: Histone-lysine N-methyltransferase EHMT2 (Homo sapiens) (UniProt Q96KQ7)
Chain of UniProt Q96KQ7 (Q96KQ7 whole entry, looked up): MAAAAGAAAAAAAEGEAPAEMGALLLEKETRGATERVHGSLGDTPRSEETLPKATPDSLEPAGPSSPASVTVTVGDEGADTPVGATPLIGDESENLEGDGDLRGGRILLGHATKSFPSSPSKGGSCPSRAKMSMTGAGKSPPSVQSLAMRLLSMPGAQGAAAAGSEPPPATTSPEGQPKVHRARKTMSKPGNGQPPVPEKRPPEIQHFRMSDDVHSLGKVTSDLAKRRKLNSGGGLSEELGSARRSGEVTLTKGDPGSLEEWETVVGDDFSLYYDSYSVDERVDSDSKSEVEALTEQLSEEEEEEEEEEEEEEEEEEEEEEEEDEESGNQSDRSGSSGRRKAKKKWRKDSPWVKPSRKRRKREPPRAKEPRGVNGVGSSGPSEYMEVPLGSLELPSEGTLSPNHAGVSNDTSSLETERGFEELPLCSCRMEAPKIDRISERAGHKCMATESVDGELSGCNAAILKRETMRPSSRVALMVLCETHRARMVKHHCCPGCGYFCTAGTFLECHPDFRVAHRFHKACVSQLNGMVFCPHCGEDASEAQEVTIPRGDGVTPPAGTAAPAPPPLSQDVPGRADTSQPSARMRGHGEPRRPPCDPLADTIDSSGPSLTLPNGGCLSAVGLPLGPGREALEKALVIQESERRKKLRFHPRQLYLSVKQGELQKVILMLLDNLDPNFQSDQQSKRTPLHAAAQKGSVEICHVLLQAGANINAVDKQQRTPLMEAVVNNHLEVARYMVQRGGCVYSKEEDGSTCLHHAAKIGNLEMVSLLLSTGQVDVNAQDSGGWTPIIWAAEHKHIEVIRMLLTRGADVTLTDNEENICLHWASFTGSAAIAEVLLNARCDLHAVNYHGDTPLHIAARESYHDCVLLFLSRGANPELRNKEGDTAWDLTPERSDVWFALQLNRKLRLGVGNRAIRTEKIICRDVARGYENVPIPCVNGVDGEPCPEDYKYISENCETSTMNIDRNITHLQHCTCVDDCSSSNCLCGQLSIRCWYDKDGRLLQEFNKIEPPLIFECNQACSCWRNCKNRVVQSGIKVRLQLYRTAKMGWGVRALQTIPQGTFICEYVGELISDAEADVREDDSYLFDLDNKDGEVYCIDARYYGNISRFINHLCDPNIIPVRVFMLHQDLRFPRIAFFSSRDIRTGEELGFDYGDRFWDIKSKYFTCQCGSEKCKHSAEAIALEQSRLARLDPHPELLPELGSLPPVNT
Assay: qHTS Assay for Inhibitors of Histone Lysine Methyltransferase G9a; note: nearly all actives have a fitted effect of over 75% in size
Settings: G9a H3K9 monomethylation, AlphaScreen, 2 h; activity, negative = inhibition: at 59 µM (top of the series) unless noted
Summary of the method: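 Chemiluminescent proximity detection of H3K9 monomethylation, read after 10 min bead incubation in the dark. Reaction: 20 nM G9a, 500 nM biotin-H3K9 peptide, 20 uM SAM cofactor, 2 h, room temperature, following 15 min enzyme-compound preincubation.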
% is set by controls: 0 for no effect and ±100 for the full control effect; potency is the fitted concentration of half-maximal effect; tags give direction and shape of the fitted curve.

Row | Compound | Potency | activity, negative = inhibition
1 | c1ccc2[nH]c(SCc3cn4ccccc4n3)nc2c1 | active: 44.7 µM | –
2 | O=C(CN1CCC(NC(=O)c2ccccc2)CC1)NCc1ccccc1F | inconclusive: 79.4 µM [inhibitor, partial curve, poor fit] | –
3 | Cc1ccc(S(=O)(=O)c2nc(-c3ccco3)oc2SC(C)c2ccccc2)cc1 (configuration not stated) | inconclusive: 10 µM [inhibitor, partial curve] | –
4 | CCCCNC(=S)NNC(=O)C1=NN(c2cc(C)ccc2C)C(=O)CC1 | inconclusive: 89.1 µM [inhibitor, single point] | –
5 | O=C(CSc1nc(-c2ccccc2)nc2c1CCCC2)c1ccc(F)cc1 | – | inactive: 1.62%
6 | OCn1ncn(-c2ccccc2)c1=S | inconclusive: 1.41 µM [inhibitor, single point] | –
7 | COc1ccc(CN2C(=O)NC3(CCCCCC3)C2=O)cc1F | – | inactive: 2.6% [at 102 µM]
8 | Cc1ccc(S(=O)(=O)NC(C(=O)Oc2ccc3c(C)c(Cl)c(=O)oc3c2)c2ccccc2)cc1 (configuration not stated) | active: 7.94 µM | –
9 | COc1ccccc1/C=C/c1nc(C#N)c(N2CCCCCC2)o1 | inconclusive: 8.91 µM [inhibitor, partial curve, poor fit] | –
10 | O=C(NC(=S)NNS(=O)(=O)c1ccccc1)c1ccc([N+](=O)[O-])cc1 | inconclusive: 3.16 µM [inhibitor, full curve, poor fit] | –
11 | COc1cccc(N2CCN(c3ccc(N4C(=O)CCC4=O)cc3[N+](=O)[O-])CC2)c1 | active: 50.1 µM | –
12 | COc1ccc(CN2CCCC(C(=O)N3CCc4ccccc4C3)C2)cc1OC (configuration not stated) | inconclusive: 31.6 µM [inhibitor, full curve, poor fit] | –
13 | COC(=O)/C(=C\Nc1ccc(Cl)cc1Cl)NC(=O)c1ccc(OC)cc1 | inconclusive: 79.4 µM [inhibitor, partial curve, poor fit] | –
14 | O=[N+]([O-])c1ccc(Cl)cc1N1CCCCC1 | inconclusive: 50.1 µM [inhibitor, partial curve] | –
15 | O=C(CSc1nnc(Cc2cc(=O)[nH]c(=O)[nH]2)n1-c1ccc(F)cc1)NC1CCCC1 | active: 79.4 µM | –
16 | CCOC(=O)C(C)Sc1nnc(Cc2cc(=O)[nH]c(=O)[nH]2)n1-c1cccc(OC)c1 (configuration not stated) | inconclusive: 89.1 µM [inhibitor, single point] | –
17 | Cc1ccc(NS(=O)(=O)c2ccc(NC(=O)N3CCCC3)cc2)cc1C | – | inactive: -0.0214%
18 | CCn1c(C(=O)N2CCC(C(=O)NCCc3ccccc3)CC2)cc2sccc21 | inconclusive: 28.2 µM [inhibitor, single point] | –
19 | O=C(NNS(=O)(=O)c1ccc2ccccc2c1)NC1CCCCC1 | inconclusive: 39.8 µM [inhibitor, single point] | –
20 | CCC(Sc1nnc(-c2ccc(OC)cc2)c(-c2ccc(OC)cc2)n1)C(=O)NC1CCCCC1 (configuration not stated) | – | inactive: 6.11%
21 | S=c1nc(C2COc3ccccc3O2)[nH][nH]1 (configuration not stated) | active: 3.55 µM | –
22 | CCOc1cc(C=O)ccc1OCC(=O)NC(C)(C)C | inconclusive: 31.6 µM [inhibitor, single point] | –
23 | O=C(Nc1ccc(Cl)cc1)Nc1ccc(C(=O)N2CCOCC2)cc1 | – | inactive: 9.93% [at 102 µM]

Row | Compound | Potency | activity, negative = inhibition
24 | O=C(CNC(=O)c1sc2ccccc2c1Cl)NC1CC1 | – | inactive: -15.2% [at 102 µM]
25 | CCOC(=O)c1ccc(NC(=O)C(CC)Sc2nc3ncccc3[nH]2)cc1 (configuration not stated) | inconclusive: 35.5 µM [inhibitor, partial curve, poor fit] | –
26 | CCC1CCCCN1C(=S)NC(=O)c1ccc([N+](=O)[O-])cc1 (configuration not stated) | inconclusive: 39.8 µM [inhibitor, partial curve, poor fit] | –
27 | COc1cccc(CNc2ccc3c(c2)ncn3C(C)C)c1OC | inconclusive: 14.1 µM [inhibitor, partial curve, poor fit] | –
28 | COC(=O)c1ccccc1S(=O)(=O)N1CCn2cccc2C1C (configuration not stated) | inconclusive: 50.1 µM [inhibitor, partial curve, poor fit] | –
29 | COC(=O)c1ccccc1-c1ccc(/C=C2\C(=O)N(c3ccccc3)N=C2c2ccccc2)o1 | active: 7.08 µM | –
30 | O=C(CCC(=O)Nc1ccc(Cl)cc1Cl)NNC(=O)Nc1ccccc1 | inconclusive: 39.8 µM [inhibitor, partial curve] | –
31 | O=C(O)COc1ccc(-c2nccc(-c3ccccn3)n2)cc1 | inconclusive: 56.2 µM [inhibitor, partial curve, poor fit] | –
32 | Cc1cc([N+](=O)[O-])c(-c2ccc(/C=N/n3cnnc3)o2)cc1Cl | inconclusive: 70.8 µM [inhibitor, single point] | –
33 | COC(=O)C1=C(C)N(CCc2c[nH]c3ccc(OC)cc23)C(=O)C1 | inconclusive: 50.1 µM [inhibitor, partial curve, poor fit] | –
34 | CCN(CC)c1ccc(NC(=O)c2cnn(CC)c2)cc1 | active: 15.8 µM | –
35 | CCc1nc(CN2CCCC(C(=O)c3ccc4c5c(cccc35)CC4)C2)c(C)[nH]1 (configuration not stated) | inconclusive: 14.1 µM [inhibitor, partial curve] | –
36 | COc1ccc(NC(=O)c2sc3nc(N4CCOCC4)c4c(c3c2N)CC(C)(C)OC4)c(OC)c1 | inconclusive: 56.2 µM [inhibitor, single point] | –
37 | O=C(/C=C/c1ccco1)NCCc1ccccc1 | active: 44.7 µM | –
38 | CN1CCN(c2ccc(NC(=O)c3cc(Cl)c4c(c3)OCCO4)cc2)CC1 | active: 50.1 µM | –
39 | N#C/C(=C/c1ccc([N+](=O)[O-])cc1)C(N)=O | inconclusive: 44.7 µM [inhibitor, partial curve] | –
40 | Cc1cccc(C(=O)N/C(=C\c2ccc(C)o2)C(=O)O)c1 | inconclusive: 50.1 µM [inhibitor, partial curve] | –
41 | Cc1ccc(SCCOCCN2CCc3ccccc3C2)cc1 | inconclusive: 39.8 µM [inhibitor, single point] | –
42 | CSc1nc(-c2ccc(Cl)cc2)c(C#N)c(=O)[nH]1 | inconclusive: 39.8 µM [inhibitor, partial curve, poor fit] | –
43 | Cc1cccnc1NC(=O)CCC(=O)c1cccs1 | inconclusive: 7.08 µM [inhibitor, single point] | –
44 | C=CC#CC1(O)CC(C)N(C)CC1C (configuration not stated) | inconclusive: 1 µM [inhibitor, full curve, poor fit] | –
45 | COC(=O)CCCC1=CC2=CC(=O)C(C)(OC(=O)c3cccs3)C(=O)C2=CN1CCc1c[nH]c2ccccc12 (configuration not stated) | – | inactive: 10% [at 12.7 µM]
46 | O=C(NCCN1CCc2ccccc2C1)Nc1ccc([N+](=O)[O-])cc1 | inconclusive: 56.2 µM [inhibitor, partial curve] | –

Row | Compound | Potency | activity, negative = inhibition
47 | CC1(C)Cc2c(sc3ncn4nc(CCC(=O)O)c(=O)nc4c23)CO1 | – | inactive: 10.1%
48 | CCN(CC)CCOC(=O)c1cccc(OC)c1 | inconclusive: 4.47 µM [inhibitor, partial curve, poor fit] | –
49 | CCOC(=O)C1CCCN(S(=O)(=O)c2ccc(S(=O)(=O)N3CCCC3)cc2)C1 (configuration not stated) | inconclusive: 89.1 µM [inhibitor, single point] | –
50 | CC(=O)N1CCC2(CCCN(C(=O)Nc3cccc(F)c3)C2)CC1 | – | inactive: 11% [at 12.7 µM]
51 | CCOC(=O)c1ccccc1NC(=O)Cn1c(-c2nonc2N)nc2ccccc21 | – | inactive: -2.1% [at 102 µM]
52 | O=C(c1cc(Cl)nc2ccccc12)N1CCN(S(=O)(=O)c2cccc(C(F)(F)F)c2)CC1 | – | inactive: 3.98% [at 102 µM]
53 | Cc1ccc(-n2ccnc(NCc3ccccc3)c2=O)cc1C | inconclusive: 31.6 µM [inhibitor, single point] | –
54 | COc1ccc(CCNC(=O)c2cc(CC(C)C)on2)cc1OC | inconclusive: 50.1 µM [inhibitor, partial curve, poor fit] | –
55 | CCCc1ccc(-c2c(C)sc(NC(=O)c3ccnn3C)c2C#N)cc1 | inconclusive: 89.1 µM [inhibitor, single point] | –
56 | Cc1cccc(N2CC(C(=O)Nc3nnc(SCCN4CCOCC4)s3)CC2=O)c1 (configuration not stated) | inconclusive: 4.47 µM [inhibitor, full curve, poor fit] | –
57 | COc1cccc(N/C(N)=N/c2nc(C(F)(F)F)cc(C(F)(F)F)n2)c1 | inconclusive: 63.1 µM [inhibitor, single point] | –
58 | CC(C)OC(=O)CC12CN3CC(CC(=O)OC(C)C)(CN(C1)C(=O)c1ccccc1C3=O)C2=O | – | inactive: 21%
59 | O=[N+]([O-])c1ccc2c(c1)Nc1nc3ccccc3nc1N2 | inconclusive: 89.1 µM [inhibitor, single point] | –
60 | COc1cc(C(=O)NC(=S)Nc2ccc([N+](=O)[O-])cc2C)cc(OC)c1OC | – | inactive: -19.9%
61 | COc1ccc(NC(=O)/C(=C\c2ccco2)NC(=O)c2ccco2)cc1 | inconclusive: 70.8 µM [inhibitor, partial curve, poor fit] | –
62 | O=C(CCC(=O)N1CCCCCC1)NCc1ccc(F)cc1 | – | inactive: 14.6% [at 102 µM]
63 | O=C(Nc1nnc(-c2ccccc2Cl)o1)c1cc2cc([N+](=O)[O-])ccc2s1 | inconclusive: 25.1 µM [inhibitor, partial curve, poor fit] | –
64 | Nc1ncnc2nc(SCc3ccc(Cl)cc3Cl)[nH]c12 | inconclusive: 11.2 µM [inhibitor, partial curve, poor fit] | –
65 | CCN(CC)S(=O)(=O)c1cccc(C(=O)N[C@H](C(=O)OCC(N)=O)C(C)C)c1 | inconclusive: 28.2 µM [inhibitor, partial curve, poor fit] | –
66 | Cc1ccc(S(=O)(=O)N(C)C)cc1NC(=O)COC(=O)COc1ccc2c(c1)CCC2 | inconclusive: 89.1 µM [inhibitor, single point] | –
67 | CC1=C(C(=O)Nc2ccc(C)cc2C)C(c2ccc(C)o2)NC(=O)N1 (configuration not stated) | inconclusive: 5.62 µM [inhibitor, single point] | –
